Results on 92 compounds are retold here after PMC13083723 (Patterns, 2026).

The campaign covered roughly 5,400 compounds. About 190 (3.5%) showed an effect of 50% or more. This is one part of the list.

The subject of the assay is Vero-E6. The assay can be described thus: primary screen, phospholipidosis by LipidTOX staining; higher = more effect of the substance. The following applies: 10 µM. The gist of the method: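 Single-concentration screen at 10 μM, with DMSO 0.1 v/v % and amiodarone 10 μM as controls. Read-out is LipidTOX Red phospholipid staining, which tolerates aldehyde fixation, in Vero-E6 cells.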
In the case of `c1cc(OCCN2CCCCC2)cc(-c2n[nH]c3ccc(-c4ncn[nH]4)cc23)c1`, the result_ITMP was -0.52%.
Turning to `O=C(Cc1ccc(Cl)c(Cl)c1)N1CCCCC1CN1CCCC1` (centres unmarked), the result_ITMP worked out at 14.4%.
To `COc1ccc(N2CCOCC2)c2sc(NC(=O)N3CCC(C)(O)CC3)nc12` belongs -0.64%.
Regarding `CCN(CC)CCO[C@H]1CC[C@@]2(C)C(=CC[C@@H]3[C@@H]2CC[C@]2(C)C(=O)CC[C@@H]32)C1`, the result_ITMP is on record as 61%.
To `CN1CCOC(c2ccccc2)c2ccccc2C1` (centres unmarked) belongs 2.33%; to `N=C(N)NCCCCN`, -1.75%; to `CN1CCC(=C2c3ccccc3CCc3sccc32)CC1`, 42.6%.
Consider `CCc1cc(-c2n[nH]c(C)c2-c2ccc3c(c2)OCCO3)c(O)cc1O`, for which the result_ITMP was -6.77%.
For `C#CCOC(=O)C1=CCCN(C)C1` the value was -0.86%; for `COc1ncc(-c2ccc3nccc(-c4ccnnc4)c3c2)cc1NS(=O)(=O)c1ccc(F)cc1F`, -1.24%; for `CC(O)C(N)C(=O)O` (centres unmarked), -9.04%.
Take `COc1ccc2cccc(N3CCN(CCNC(=O)c4ccc(F)cc4)CC3)c2c1`: the result_ITMP was found to be 14%.
In the case of `CC1(C)CC[C@]2(C(=O)O)CC[C@]3(C)[C@H](C(=O)C=C4[C@@]5(C)C=C(C#N)C(=O)C(C)(C)[C@@H]5CC[C@]43C)[C@@H]2C1`, the result_ITMP is on record as -1.94%.
For the compound `C[C@@]1(O)[C@H](O)[C@@H](CO)O[C@H]1n1cnc2c(O)nc(N)nc21`, the result_ITMP is reported as 7.18%.
In the case of `Fc1ccc2c(CCNCc3cccc(OCC(F)(F)C(F)F)c3)c[nH]c2c1`, the result_ITMP came out at 10.9%.
As for `O=C(OCCOCCO)c1ccccc1Nc1cccc(C(F)(F)F)c1`, the result_ITMP is -6.27%.
To `Cc1cc(C)c2c(N)c(C(=O)NCc3ccc(Cl)cc3)sc2n1` belongs -3.86%; to `COc1ccc(Cl)cc1[C@]1(F)C(=O)Nc2cc(C(F)(F)F)ccc21`, -1.44%.
Consider `NC(=O)OC[C@@H]1[C@H](NC(=O)/C(=N\OCC(=O)[O-])c2csc(N)n2)C(=O)N1S(=O)(=O)[O-]`, for which the result_ITMP is 0.72%.
`CC(C)(C)CCN1C[C@@H]2[C@@H](CNC(=O)c3cc(Cl)cc(Cl)c3)[C@@H]2C1`: the result_ITMP is on record as 20.6%.
For `CC(=O)Oc1ccccc1C(=O)Oc1cccc(CO[N+](=O)[O-])c1` the value was 0.5%; for `O=[N+]([O-])c1ccc2nc(COCc3nc4ccc([N+](=O)[O-])cc4[nH]3)[nH]c2c1`, -6.5%.
To `C[N+](C)(C)CCOP(=O)([O-])OC[C@H](O)CO` belongs 0.5%; to `CC(=O)Nc1cccc(O)c1`, -2.86%; to `Cc1cnc(C(=O)O)c[n+]1[O-]`, -1.43%.
As for `O=C(c1cncc(Br)c1)N1CCC(N2CCCC2)CC1`, the result_ITMP is on record as 1.83%.
Turning to `O=C(Nc1ccc([N+](=O)[O-])cc1O)Nc1ccccc1Br`, the result_ITMP is -0.92%.
In the case of `O=c1c(O)c(-c2ccc(O)c(O)c2)oc2cc(O)cc(O)c12`, the result_ITMP is -1.58%.
As for `CCOC(=O)C1=C(O)C(=O)N(Cc2ccccc2)C1`, the result_ITMP was -2.54%.
Take `CN(C(=O)c1c(O)c2ccccc2n(C)c1=O)c1ccccc1`: the result_ITMP is listed as -2.25%.
For `Cc1cc(N2CCN([C@@H]3CN[C@H](C(=O)N4CCSC4)C3)CC2)n(-c2ccccc2)n1`, the result_ITMP turned out to be 0.49%.
As for `CC1(O)C(O)C(CO)OC1n1ccc(N)nc1=O` (centres unmarked), the result_ITMP is -5.94%.
For the compound `Nc1cc2c3ccccc3ccc2c2ccccc12`, the result_ITMP is reported as -0.54%.
On to `COc1ccc(CN2CCN(C(c3ccc(F)cc3)c3ccc(F)cc3)CC2)c(OC)c1OC`, for which the result_ITMP amounted to 33.9%.
For `CC(C)(C)c1ccc2cc(C#N)c(C#N)cc2c1` the value was -5.37%; for `CCc1ccc(C(=O)C(C)CN2CCCCC2)cc1` (centres unmarked), 4.16%; for `FCc1ccc(OCCOc2ccc(Cl)cc2Cl)c(Cl)n1`, -4.79%.
Regarding `Cc1ccc(OCCSc2ncccn2)c(Br)c1`, the result_ITMP is -4.09%.
Turning to `COc1ccc(C(=O)c2ccccc2O)c(O)c1`, the result_ITMP is -3.03%.
To `C[C@@H]1COCCN1c1cc(=O)n2c(n1)N(Cc1cncc(Cl)c1)[C@H](C(F)(F)F)CC2` belongs -16.3%.
On to `COc1ccc2c(c1)C(C(=O)N(Cc1ccc(N(C)C)cc1)c1ccc(C(C)C)cc1)CCC2` (centres unmarked), for which the result_ITMP was -2.28%.
Turning to `COc1c(C)c(C(=O)c2ccc(N)c(C(=O)[O-])c2)n2ccccc12`, the result_ITMP is -3.94%.
As for `CCN1CCN(Cc2ccc(Nc3ncc(F)c(-c4cc(F)c5nc(C)n(C(C)C)c5c4)n3)nc2)CC1`, the result_ITMP is reported as 76.7%.
For `COCCc1ccc(OCC(O)CNC(C)C)cc1` (centres unmarked), the result_ITMP is reported as -1.47%.
For `CCC(=O)O[C@@H]1CC(=O)O[C@H](C)C/C=C/C=C/[C@H](O)[C@H](C)C[C@H](CC=O)[C@H](O[C@@H]2O[C@H](C)[C@@H](O[C@H]3C[C@@](C)(O)[C@@H](OC(=O)CC)[C@H](C)O3)[C@H](N(C)C)[C@H]2O)[C@H]1OC`, the result_ITMP was found to be 1.99%.
To `Cc1c(S(=O)(=O)[O-])oc2c1C(=O)C(=O)c1c-2ccc2c1CCCC2(C)C` belongs -1.56%.
Regarding `CN1CCC[C@@H]1CCO[C@](C)(c1ccccc1)c1ccc(Cl)cc1`, the result_ITMP is reported as 90.6%.
Consider `CCOc1ccc(NC(C)=O)cc1`, for which the result_ITMP was -5.26%.
As for `CCOC(=O)CN1CCN(C(=O)/C=C/c2cc(OC)c(OC)c(OC)c2)CC1`, the result_ITMP is reported as -4.44%.
For the compound `OC[C@H]1O[C@@H](O[C@@H]2[C@H](O)[C@@H](O)[C@H](O[C@H]3[C@H](O)[C@@H](O)C(O)O[C@@H]3CO)O[C@@H]2CO)[C@H](O)[C@@H](O)[C@H]1O` (some centres unmarked), the result_ITMP turned out to be 3.95%.
For `O=C(c1ccc(OCCCc2c[nH]cn2)cc1)C1CC1` the value was 13%.
`CC(C)[C@H](N)C(=O)OCC(CO)OCn1cnc2c(=O)[nH]c(N)nc21` (some centres unmarked): the result_ITMP was -5.92%.
Turning to `c1ccc(C2CC2)c(OCC2=NCCN2)c1`, the result_ITMP was 4.05%.
As to `C/C=C(\C(=C\C)c1ccc(O)cc1)c1ccc(O)cc1`, the result_ITMP was 0.7%.
Consider `CC(C(=O)O)c1ccc(C(=O)c2cccs2)cc1` (centres unmarked), for which the result_ITMP was -0.4%.
In the case of `COc1cc2ncnc(Nc3ccc(F)c(Cl)c3)c2cc1OCCCN1CCOCC1`, the result_ITMP is -1.05%.
For the compound `O=C(NC(Cc1c[nH]c2ccccc12)C(=O)[O-])c1ccc(Cl)cc1` (centres unmarked), the result_ITMP is recorded as -0.44%.
`CN1CCN(c2nc(C3=C(c4c[nH]c5ccccc45)C(=O)NC3=O)c3ccccc3n2)CC1`: the result_ITMP came out at 22.1%.
Take `CCCCC[C@H](O)/C=C/[C@H]1[C@H](O)CC(=O)[C@@H]1CCCCCCC(=O)O`: the result_ITMP was -7.26%.
To `NC1=N[C@@](c2cccc(-c3cncnc3)c2)(c2ccnc(C(F)F)c2)c2cccc(F)c21` belongs 4.11%; to `CC(=O)Nc1ccc(C(=O)O)cc1`, -3.42%.
For `Cc1ccccc1C(c1ccccc1C)N1C2CCC1CC(O)(c1ccccc1)C2` (centres unmarked) the value was -2.82%; for `O=C(O)c1cccnc1C(=O)O`, -3.37%.
On to `C(#Cc1nc2ncccc2nc1OCCN1CCCC1)c1ccccc1`, for which the result_ITMP is 8.41%.
Regarding `CCN1CCC[C@H]1CNC(=O)c1c(O)c(Cl)cc(Cl)c1OC`, the result_ITMP is on record as -1.14%.
Take `O=C(O)c1ccccc1`: the result_ITMP is on record as -7.76%.
To `CN[C@@H](C)C(=O)N[C@H](C(=O)N1CCC[C@H]1C(=O)Nc1sc(-c2ncco2)nc1-c1ccccc1)C1CCCCC1` belongs 1.46%; to `CC[C@@H]([C@H](C)O)n1ncn(-c2ccc(N3CCN(c4ccc(OC[C@@H]5CO[C@@](Cn6cncn6)(c6ccc(F)cc6F)C5)cc4)CC3)cc2)c1=O`, 19.4%.
`NCc1ccc(S(N)(=O)=O)cc1`: the result_ITMP is -2.52%.
In the case of `CNC(C)(C)Cc1ccccc1`, the result_ITMP is on record as -6.23%.
With `CCOP(=S)(OCC)Oc1cc(C)nc(C(C)C)n1`, the result_ITMP was 2.48%.
With `O=c1[nH]nc(Sc2ncc([N+](=O)[O-])s2)n1-c1ccc2c(c1)OCCO2`, the result_ITMP is reported as -5.34%.
As to `CC(C)[C@@H](CS(=O)(=O)C(C)C)N1C(=O)[C@@](C)(CC(=O)O)C[C@H](c2cccc(Cl)c2)[C@H]1c1ccc(Cl)cc1`, the result_ITMP was -0.58%.
As to `CCN(CCCOc1ccc2c(Nc3cc(CC(=O)Nc4cccc(F)c4)[nH]n3)ncnc2c1)CCOP(=O)(O)O`, the result_ITMP came out at 0.14%.
With `CC#C[C@@H](CC(=O)[O-])c1ccc(OCc2cccc(-c3ccc(C(F)(F)F)cc3)c2)cc1`, the result_ITMP came out at 2.55%.
For `c1ccc(-c2n[nH]c3c2oc2ccccc23)cc1`, the result_ITMP is reported as -1.91%.
On to `Cn1cc(-c2ccc(S(=O)(=O)n3ccc(/C=C/C(=O)Nc4ccccc4N)c3)cc2)cn1`, for which the result_ITMP turned out to be 30.1%.
Take `Cc1ccccc1N1CCN(S(=O)(=O)CC23CCC(C[C@@H]2NC(=O)[C@@H](N)CCS(C)(=O)=O)C3(C)C)CC1` (some centres unmarked): the result_ITMP is reported as -1.46%.
As to `c1ccc2oc(C3=NCCN3)cc2c1`, the result_ITMP was 19.4%.
`CCc1oc2ccccc2c1C(=O)c1cc(Br)c(O)c(Br)c1`: the result_ITMP came to 0.74%.
With `CC/C(=C(\c1ccccc1)c1ccc(OCCN(C)C)cc1)c1ccccc1`, the result_ITMP is recorded as 49.4%.
To `O=C([O-])c1cc(=O)c2c(OCC(O)COc3cccc4oc(C(=O)[O-])cc(=O)c34)cccc2o1` belongs -1.95%; to `C=C(c1ccc(C(=O)O)cc1)c1cc2c(cc1C)C(C)(C)CCC2(C)C`, -6.92%; to `CN(C)CCCCC(=O)Nc1ccc(NC(=S)NC(=O)c2ccc(C(C)(C)C)cc2)cc1`, 147%.
On to `CC(C)(C)NCC(O)c1cc(O)cc(O)c1` (centres unmarked), for which the result_ITMP is reported as -0.5%.
As to `NS(=O)(=O)c1cc2c(cc1Cl)NC(CC1CCCC1)NS2(=O)=O` (centres unmarked), the result_ITMP is on record as -8.66%.
To `CC[N+](CC)(CC)CCOc1cccc(OCC[N+](CC)(CC)CC)c1OCC[N+](CC)(CC)CC` belongs -0.66%.
For `CN1C(=O)N(c2ccc(C#N)c(C(F)(F)F)c2)C(=O)[C@@]1(CO)c1ccccc1` the value was -2.11%.
Turning to `COc1ccc2[nH]c3nnc(C)c-3c(NCCOCCO)c2c1`, the result_ITMP is listed as -1.31%.
`CC(C)(C)S(=O)(=O)N[C@H]1CC[C@H](C(=O)Nc2ccc(C(F)(F)F)cn2)CC1`: the result_ITMP amounted to 1%.
To `O=C(O)CSCC(=O)NC1CCSC1=O` (centres unmarked) belongs -1.76%; to `COc1ccc(CCN(C)CCCOc2ccc(S(=O)(=O)c3c(C(C)C)c4ccccc4n3C)cc2)cc1OC`, 84.7%.
